Measured values published in the supplement of paper PMC3334620.
In all, about 33,000 sequences were measured (“E-score (-0.5 to 0.5)”: median about -0.035, highest 2% from about 0.35 on). This is one part of the list.

Each sequence was assayed against T1, Pdr3 (UniProt P33200) (assay: PBM E-score (8-mer binding enrichment) (E-score (-0.5 to 0.5)); higher = stronger / more preferred TF binding; most listed sequences are background and not binding sites). Conditions: protein concentration: 200 nM; construct: GST-full length.
T1 sequence: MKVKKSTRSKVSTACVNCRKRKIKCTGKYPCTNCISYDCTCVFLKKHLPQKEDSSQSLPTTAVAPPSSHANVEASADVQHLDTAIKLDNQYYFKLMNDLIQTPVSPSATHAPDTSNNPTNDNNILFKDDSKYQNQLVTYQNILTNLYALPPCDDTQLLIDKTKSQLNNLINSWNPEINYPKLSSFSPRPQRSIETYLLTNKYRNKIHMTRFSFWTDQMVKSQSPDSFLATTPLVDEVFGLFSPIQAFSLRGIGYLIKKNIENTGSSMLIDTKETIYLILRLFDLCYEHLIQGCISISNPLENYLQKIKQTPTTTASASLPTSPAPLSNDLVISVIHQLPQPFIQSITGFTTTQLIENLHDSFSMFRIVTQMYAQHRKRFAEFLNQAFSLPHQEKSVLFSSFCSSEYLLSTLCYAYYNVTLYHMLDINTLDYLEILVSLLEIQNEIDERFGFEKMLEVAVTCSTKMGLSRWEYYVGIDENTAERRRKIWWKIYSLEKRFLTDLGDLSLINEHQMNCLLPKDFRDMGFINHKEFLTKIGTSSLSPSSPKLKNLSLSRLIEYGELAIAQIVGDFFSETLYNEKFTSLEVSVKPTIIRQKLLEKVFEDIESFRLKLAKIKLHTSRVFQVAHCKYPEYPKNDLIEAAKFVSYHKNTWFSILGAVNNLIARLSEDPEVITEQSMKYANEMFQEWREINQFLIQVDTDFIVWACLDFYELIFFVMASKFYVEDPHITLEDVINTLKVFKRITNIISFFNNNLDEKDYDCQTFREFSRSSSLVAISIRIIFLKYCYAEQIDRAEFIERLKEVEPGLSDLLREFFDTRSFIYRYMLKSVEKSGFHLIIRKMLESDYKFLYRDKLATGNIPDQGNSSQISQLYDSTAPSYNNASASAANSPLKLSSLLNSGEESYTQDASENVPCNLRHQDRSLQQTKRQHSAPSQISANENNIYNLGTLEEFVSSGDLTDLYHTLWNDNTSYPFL
How it was run: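 PURExpress in vitro transcription/translation supplied GST-tagged yeast transcription factors, either full-length or DNA-binding domain. Applied at about 100-200 nM to universal all-10-mer Agilent arrays double-stranded by primer extension, the bound protein was detected with fluorescent anti-GST. E-scores, modified Wilcoxon-Mann-Whitney statistics, were given by the Universal PBM Analysis Suite to ungapped eight-base words pooled with their reverse complements after masliner normalisation.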
In the case of GAGAGGGC, the “PBM E-score” value is reported as -0.206.
GCAACACA was tested, and the “PBM E-score” value was -0.0231.
In the case of AACCATGT, the “PBM E-score” value is reported as -0.0629.
With ACCGAATG the “PBM E-score” value was -0.0335.
For AGACTGCT, the “PBM E-score” value was -0.245.
With AGATCTGC the “PBM E-score” value was -0.142.
For GCGTTCCC, the “PBM E-score” value was 0.139.
In the case of AAACATCT, the “PBM E-score” value is reported as -0.119.
GGTATCCA was tested, and the “PBM E-score” value was 0.0326.
In the case of AACTAGCA, the “PBM E-score” value is reported as 0.0576.
In the case of GTTGGTCA, the “PBM E-score” value is reported as 0.0152.
With ACATCCTG the “PBM E-score” value was 0.0637.
In the case of AGTAATCG, the “PBM E-score” value is reported as 0.071.
For AATCTGTA, the “PBM E-score” value was -0.0192.
In the case of ATCACATC, the “PBM E-score” value is reported as -0.0522.
GTCCTACA was tested, and the “PBM E-score” value was 0.0998.
In the case of ACTTGATC, the “PBM E-score” value is reported as -0.117.
For GGACGTTA, the “PBM E-score” value was 0.0197.
AGCATAAG was tested, and the “PBM E-score” value was -0.0742.
AAAATCCA was tested, and the “PBM E-score” value was 0.0216.
GACTACCC was tested, and the “PBM E-score” value was -0.0793.
With AATAGGCG the “PBM E-score” value was 0.313.
In the case of AACTCTGT, the “PBM E-score” value is reported as 0.0808.
With CGCCTACC the “PBM E-score” value was -0.0645.
AGACGTGC was tested, and the “PBM E-score” value was -0.0174.
With AGCCTGTA the “PBM E-score” value was -0.149.
With GCGTAAGA the “PBM E-score” value was -0.0814.
In the case of AACGGAGG, the “PBM E-score” value is reported as 0.185.
With AGCATTGC the “PBM E-score” value was -0.145.
GGGTACAA was tested, and the “PBM E-score” value was -0.0884.
For CGGCAAAG, the “PBM E-score” value was 0.166.
For ACGTTTCA, the “PBM E-score” value was 0.00314.
For CGACCGGC, the “PBM E-score” value was 0.161.
With ACCATCAC the “PBM E-score” value was -0.074.
For GCGAACTA, the “PBM E-score” value was 0.121.
With ATACGAAG the “PBM E-score” value was -0.0657.
For AAATAAAC, the “PBM E-score” value was 0.0234.
With CCGACAGC the “PBM E-score” value was 0.0642.
CTACCGTA was tested, and the “PBM E-score” value was -0.141.
ACCGTTTC was tested, and the “PBM E-score” value was 0.117.
AAGTCTGT was tested, and the “PBM E-score” value was -0.271.
In the case of GACCGCCC, the “PBM E-score” value is reported as 0.0625.
With CGGGTTGC the “PBM E-score” value was 0.216.
GCCAACGC was tested, and the “PBM E-score” value was -0.0837.
GATCAATC was tested, and the “PBM E-score” value was 0.0333.
AAACAGGA was tested, and the “PBM E-score” value was -0.209.
With CAGCGCTG the “PBM E-score” value was 0.0819.
In the case of CCGTAGGA, the “PBM E-score” value is reported as -0.239.
With CCCTTTAG the “PBM E-score” value was -0.303.
CTACTAGA was tested, and the “PBM E-score” value was -0.145.
For AAGACGAA, the “PBM E-score” value was -0.0611.
In the case of TAATGCAA, the “PBM E-score” value is reported as -0.241.
For ATCTCTCC, the “PBM E-score” value was -0.0485.
CAAATATG was tested, and the “PBM E-score” value was -0.101.
In the case of CTAACCAG, the “PBM E-score” value is reported as -0.169.
With TAATAGCA the “PBM E-score” value was -0.212.
ATTTCTTA was tested, and the “PBM E-score” value was 0.0659.
For GCCCCCGA, the “PBM E-score” value was -0.0849.
With ACTGTTGG the “PBM E-score” value was -0.141.
AGACGAAT was tested, and the “PBM E-score” value was -0.176.
With CGATGAAG the “PBM E-score” value was 0.00294.
For AAGCATCG, the “PBM E-score” value was -0.0294.
In the case of ATCTTCCG, the “PBM E-score” value is reported as 0.376.
With ACCGATCT the “PBM E-score” value was 0.0319.
For ATACAAAT, the “PBM E-score” value was 0.184.
For ATGATATA, the “PBM E-score” value was -0.174.
CTACTCCC was tested, and the “PBM E-score” value was -0.00145.
In the case of AGGTGTAT, the “PBM E-score” value is reported as -0.0351.
ATAGCACA was tested, and the “PBM E-score” value was 0.0839.
In the case of ACGGTTAC, the “PBM E-score” value is reported as 0.0508.
With CGTAAACG the “PBM E-score” value was -0.083.
With CTTGGGAC the “PBM E-score” value was 0.0381.
With CCGCAATC the “PBM E-score” value was 0.263.
For AGAGTCTC, the “PBM E-score” value was -0.078.
With CCTTAACA the “PBM E-score” value was -0.243.
In the case of AGGGGATA, the “PBM E-score” value is reported as -0.215.
For ATTTAGTG, the “PBM E-score” value was 0.087.
With AGTATGGC the “PBM E-score” value was 0.0513.
CTGACAAC was tested, and the “PBM E-score” value was 0.00841.
In the case of AGGTTTCG, the “PBM E-score” value is reported as -0.157.
With ATCAGGAC the “PBM E-score” value was 0.0194.
With AAGCTGAA the “PBM E-score” value was 0.0428.
In the case of ACTTGCCG, the “PBM E-score” value is reported as -0.00332.
For ATCGAGTG, the “PBM E-score” value was 0.051.
In the case of GGAGCACC, the “PBM E-score” value is reported as 0.0149.
In the case of GTTGATAA, the “PBM E-score” value is reported as -0.0201.
For GGCCTCCA, the “PBM E-score” value was -0.0635.
In the case of ACGGCTTC, the “PBM E-score” value is reported as 0.097.
For GAGAATGA, the “PBM E-score” value was 0.0557.
CGACCACG was tested, and the “PBM E-score” value was 0.0268.
In the case of CTGCAGCC, the “PBM E-score” value is reported as 0.0486.
In the case of ATCGCCGC, the “PBM E-score” value is reported as 0.166.
GTCCGCGA was tested, and the “PBM E-score” value was 0.266.
In the case of AAGGTGCC, the “PBM E-score” value is reported as 0.0662.
In the case of AACTTTCT, the “PBM E-score” value is reported as -0.0449.
With ATTTCTCC the “PBM E-score” value was 0.162.
For ATAGTAGC, the “PBM E-score” value was 0.0925.
With AATGCGCC the “PBM E-score” value was 0.242.
For GGAAGGCA, the “PBM E-score” value was 0.203.
In the case of CCATTTTA, the “PBM E-score” value is reported as 0.0737.
For CGTGGCCA, the “PBM E-score” value was -0.217.
GTGTGACA was tested, and the “PBM E-score” value was -0.122.
With GGACGGCA the “PBM E-score” value was 0.149.
With CGGATCGC the “PBM E-score” value was 0.279.
With CGGAAAAC the “PBM E-score” value was 0.375.
For CATAGATC, the “PBM E-score” value was -0.142.
In the case of CGTTCGAA, the “PBM E-score” value is reported as 0.14.
In the case of AATGCAGA, the “PBM E-score” value is reported as -0.00017.
For CCCCTCGC, the “PBM E-score” value was -0.234.
